Measured values published in PubChem BioAssay (NCI).
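Five concentrations, 48 hours, 96-well plates. GI50 is the concentration that inhibits growth by half. TGI marks complete inhibition of growth.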

System: NCI-H322M lung
Experiment: growth of human tumour cells (NCI), 48 h

SMILES | GI50 [µM] | TGI [µM]
Oc1ccc(CSc2nnc(-c3ccncc3)o2)c2cccnc12 | 3.13 | > 100
CCN(CC)c1ccc(NC2=C(Cl)C(=O)c3nc(C)ccc3C2=O)cc1 | 14.8 | 28.9
